Experimental findings from ChEMBL document CHEMBL4888484, “Replenishing the malaria drug discovery pipeline: Screening and hit evaluation of the MMV Hit Generation Library 1 (HGL1) against asexual blood stage Plasmodium falciparum ,using a nano luciferase reporter read-out” (2022) are described below.

Screen size: about 150,000 compounds; about 540 (0.36%) showed an effect of 50% or more. Some of the results follow.

The experiment relates to Plasmodium falciparum. Description: Primary screen in NF54 nanoGlo assay, in single point, at 2uM, 72h; a lower Z score goes with more inhibition. As to conditions: timepoint 72 hour. The class given is functional, Erythrocyte.
The % Inhibition is the change of the read-out against control, counted positive when it falls. As to `O=C(c1coc(-c2cccnc2)n1)N1CCCCC[C@@H]1Cc1ccccc1Cl`, the “% Inhibition” value is 2% and the Z score is on record as -0.29.

In the case of `CC(C)[C@@H]1CCO[C@@H]1CNC(=O)N1CCC(n2cc(C(N)=O)nn2)CC1`, the “% Inhibition” value is given as 12% and the Z score is -1.58.

With `Cn1nc2n(c1=O)CC[C@@H](NC(=O)c1cc(F)ccc1Cl)CC2`, the “% Inhibition” value is given as -1% and the Z score came out at 0.2.

`Cc1cc(=O)c(C(=O)N2CCc3nocc3C2)cn1C`: the “% Inhibition” value is -15% and the Z score is listed as 1.42.

`CCCS(=O)(=O)N1CCCc2cc(NS(=O)(=O)c3ccc(OCC)c(F)c3)ccc21`: the “% Inhibition” value was found to be 18% and the Z score is listed as -2.3.

Consider `O=C(Nc1ccc2c(c1)cc(C(=O)Nc1ccccc1)n2Cc1ccc(C(F)(F)F)cc1)c1ccc(F)cc1`, for which the “% Inhibition” value is recorded as -2% and the Z score was 0.42.

Consider `CCN(C)C1=Nc2ccccc2Oc2ccc(NC(=O)COc3ccccc3)cc21`, for which the “% Inhibition” value amounted to 3% and the Z score is -0.44.

`Cc1c(C(=O)N(CCO)C(C)C)sc2ncnc(NCc3cc4ccccc4s3)c12`: the “% Inhibition” value came out at 24% and the Z score is on record as -3.36.

Take `CC[C@@H]1CN(c2nc3ccccc3s2)CC[C@]1(C)O`: the “% Inhibition” value is -1% and the Z score is given as 0.25.

Consider `O=C(NCC1CC1)[C@H](C1CCCC1)N1CCN(C(=O)c2ccc(C(F)(F)F)cc2)CC1`, for which the “% Inhibition” value is -9% and the Z score came to 0.83.

As to `Cc1nnc(NCCc2ccc(F)cc2)[nH]c1=O`, the “% Inhibition” value was -3% and the Z score was found to be 0.47.

Take `Cn1nccc1-c1cccc(-c2nc3c(cc2C(N)=O)CCC3)c1`: the “% Inhibition” value is recorded as -6% and the Z score is on record as 1.24.

For the molecule `Cn1cc(CC(=O)NCc2ccccc2F)c2cccnc21`, the “% Inhibition” value is given as -21% and the Z score came out at 2.46.

Regarding `Cn1nc(C2CCCC2)cc1NC(=O)c1csnn1`, the “% Inhibition” value is on record as -11% and the Z score was determined as 1.45.

With `CC(CCCO)NC(=O)NC1CCCC1c1ccc(F)cc1` (centres undefined), the “% Inhibition” value is given as -19% and the Z score came out at 2.19.

Turning to `CC(C)(C)OC(=O)NCc1ccccc1-c1ncc[nH]1`, the “% Inhibition” value was determined as 3% and the Z score was -0.37.

Regarding `CCOc1cc(N2CCC[C@H]2C(=O)N(CC)CC)ncn1`, the “% Inhibition” value is reported as -9% and the Z score was determined as 0.79.

Consider `CC(OC(=O)C(O)C(C)c1ccccc1)C(N)=O` (centres undefined), for which the “% Inhibition” value was determined as 3% and the Z score was -0.49.

With `Cc1c(CN2CCC([C@]3(Cc4ccccc4Cl)NC(=O)N(CC4CC4)C3=O)CC2)cnn1C`, the “% Inhibition” value is listed as -1% and the Z score came to 0.29.

For the molecule `Cc1nc(O)cc(CCNC(=O)CCC(F)(F)F)n1`, the “% Inhibition” value is listed as 5% and the Z score is -0.98.

As for `c1coc(CNc2ncnc3c2CCCC3)c1`, the “% Inhibition” value is -5% and the Z score was found to be 0.96.

As for `CCc1cc(CNC(=O)N2CCN(CC(F)(F)F)[C@@H](C)C2)on1`, the “% Inhibition” value is listed as -6% and the Z score is listed as 0.79.

As for `CN(C(=O)OC(C)(C)C)[C@H]1CCCN(C(=O)c2ccn(C)c(=O)c2)C1`, the “% Inhibition” value worked out at 3% and the Z score is on record as -0.37.

`CC(C1CC2CCC1C2)N1C(=O)NC(=O)C1=O` (centres undefined): the “% Inhibition” value stood at 2% and the Z score was -0.3.

Consider `Cc1ccc(C(=O)N2CC(n3cnnc3C)C2)cn1`, for which the “% Inhibition” value worked out at 29% and the Z score is given as -3.87.

For `C[C@H](NC(=O)C1CCN(S(C)(=O)=O)CC1)c1cccnc1`, the “% Inhibition” value is listed as -4% and the Z score is on record as 0.69.

In the case of `CCOc1cccc(CN(C)C[C@H](O)C2CC2)c1OC(F)F`, the “% Inhibition” value is -5% and the Z score amounted to 0.61.

With `O=C(NCCOCc1ccc(Cl)cc1Cl)C1CCNCC1`, the “% Inhibition” value is -6% and the Z score is listed as 0.83.

As to `O=C1CCN(C(=O)CNC(=O)c2cccc(F)c2)CCN1`, the “% Inhibition” value is -21% and the Z score was determined as 2.61.

In the case of `CCO[C@@H](C)c1nc(CN(Cc2ccco2)C2CC2)cs1`, the “% Inhibition” value is listed as -6% and the Z score amounted to 0.77.

On to `COc1ccc(OC)c(CN2CCC([C@H](Cc3ccc(F)cc3F)N(C)C(=O)c3ccco3)CC2)c1`, for which the “% Inhibition” value turned out to be 4% and the Z score is reported as -0.41.

As for `CO[C@H]1C[C@@H](O)C12CCN(C(=O)c1n[nH]c(-c3ccc(Cl)cc3)c1C)CC2`, the “% Inhibition” value turned out to be 0% and the Z score was found to be 0.02.

For the molecule `O=C(Cc1cccs1)N1CC2(C[C@H](N3CCOCC3)CO2)C1`, the “% Inhibition” value is reported as -17% and the Z score came to 1.99.

For `O=C(COc1ccc(Cl)cc1Cl)N1CCC(Oc2cccc3cccnc23)CC1`, the “% Inhibition” value is -16% and the Z score turned out to be 3.05.

Turning to `C=CCCS(=O)(=O)N1CC(N2CCN(CC)CC2)C1`, the “% Inhibition” value was found to be 18% and the Z score is listed as -2.25.

As to `Cc1nc(C(=O)N2C[C@@H](F)C[C@H]2CO)c(C)o1`, the “% Inhibition” value was -9% and the Z score was 1.67.

With `c1ccc2sc(-c3ccncc3)nc2c1`, the “% Inhibition” value was -14% and the Z score is listed as 1.64.

With `c1coc(-c2noc(CN3CCc4nocc4C3)n2)c1`, the “% Inhibition” value is recorded as 3% and the Z score is listed as -0.4.

Turning to `CCNC(=O)CNc1nc(C(C)C)no1`, the “% Inhibition” value was -7% and the Z score worked out at 1.02.

As for `CC1(C)C[C@@](C)(c2ccccc2)c2ccccc2N1S(=O)(=O)c1ccc(Br)cc1`, the “% Inhibition” value is reported as 5% and the Z score is -0.87.

On to `O=S1(=O)CCN(C2CCN(Cc3c(F)cccc3F)CC2)CC1`, for which the “% Inhibition” value is reported as 33% and the Z score is -4.46.

As for `c1ccc2c(-c3ncnc4ccccc34)ncnc2c1`, the “% Inhibition” value amounted to 0% and the Z score is on record as -0.03.
